Assay results as given in the supplement of paper PMC4967469.
IC50 is the fitted dose that halves viability relative to control wells, and lower means more sensitive; fits outside the tested doses are given as limits. AUC, from the same fit, is the share of area under the viability curve across the 256-fold dose range: 1 means no effect, lower means more sensitive. For some assays here: Any top dose called inferred was derived from the fitted curves, not read from the paper. For some assays here: An entry number marks a drug with two screens in the source, which often give different values.

Assays:
Experiment in all cases: Viability of human cancer cell lines after 72 h of drug (GDSC screen)
[1] = compound: COc1cc(O)c2c(c1)/C=C/C[C@H](O)[C@H](O)C(=O)/C=C\C[C@H](C)OC2=O [(5Z)-7-Oxozeaenol]; settings: top dose 10 µM; top dose inferred
Method: (§1)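 Human cancer cell lines in 384-well plates, medium with 10% serum, drug for 72 h over a 256-fold dose range (nine 2-fold or five 4-fold steps up to the top dose). Adherent lines were fixed and stained with the nucleic acid dye Syto60, suspension lines read with resazurin; signal relative to control wells, capped at 0 and 100%. One two-parameter sigmoid per drug and line, fitted in a mixed model over all curves with the slope shared within a line.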

[2] = compound: Nc1ccn([C@@H]2O[C@H](CO)[C@@H](O)[C@@H]2O)c(=O)n1 [Cytarabine]; settings: top dose 2 µM
Method: as §1

[3] = compound: COc1nc(C)cnc1NS(=O)(=O)c1cccnc1-c1ccc(-c2nnco2)cc1 [Zibotentan]; settings: top dose 20 µM; top dose inferred
Method: as §1

[4] = compound: CCn1c(-c2nonc2N)nc2cnc(Oc3cccc(NC(=O)c4ccc(OCCN5CCOCC5)cc4)c3)cc21 [GSK269962A]; settings: top dose 5 µM; screen: GDSC drug entry 1192; top dose inferred
Method: as §1

[5] = compound: Cc1cnc(-c2cnc(NCCNc3ccc(C#N)cn3)nc2-c2ccc(Cl)cc2Cl)[nH]1 [CHIR-99021]
Method: as §1

[6] = compound: COc1cc(N2CCC(O)CC2)ccc1Nc1cc(Nc2ccccc2S(=O)(=O)C(C)C)c2cc[nH]c2n1 [MPS-1-IN-1]; settings: top dose 20 µM; top dose inferred
Method: as §1

[7] = compound: C=CC(=O)Nc1cc(-n2c(=O)ccc3cnc4ccc(-c5cn[nH]c5)cc4c32)ccc1C [QL-X-138]; settings: top dose 10.24 µM; top dose inferred
Method: as §1

[8] = compound: C/C=C(/C)C(=O)O[C@H]1C(C)=C2[C@H]([C@@H]1OC(=O)CCCCCCC)[C@@](C)(OC(C)=O)C[C@H](OC(=O)CCC)[C@@]1(O)[C@H]2OC(=O)[C@@]1(C)O [Thapsigargin]; settings: top dose 0.512 µM; top dose inferred
Method: as §1

[9] = compound: O=c1cc(-c2cccc3c2Sc2ccccc2S3)oc(N2CCOCC2)c1 [KU-55933]; settings: top dose 10 µM
Method: as §1

[10] = compound: C[C@]1(c2nc3c(C(N)=O)cccc3[nH]2)CCCN1 [ABT-888]; settings: top dose 5 µM; top dose inferred
Method: as §1

[11] = compound: Cc1ccc(F)c(NC(=O)Nc2ccc(-c3cccc4[nH]nc(N)c34)cc2)c1 [ABT-869]; settings: top dose 1.024 µM; top dose inferred
Method: as §1

[12] = compound: COc1cc2ncnc(-n3nc(-c4ccccn4)nc3N)c2cc1OC [CP466722]; settings: top dose 16 µM; top dose inferred
Method: as §1

[13] = top dose 2.56 µM, screen: GDSC drug entry 154
[14] = top dose 10 µM, screen: GDSC drug entry 1241, top dose inferred

EGI-1 (biliary tract, adherent)
AUC [1]: 0.497 | IC50 [1]: 610 nM | AUC [2]: 0.795 | IC50 [2]: 1270 nM | AUC [3]: 0.978 | IC50 [3]: > 20 µM | AUC [4]: 0.98 | IC50 [4]: > 5 µM | AUC [5, 13]: 0.97 | IC50 [5, 13]: > 2560 nM | AUC [5, 14]: 0.961 | IC50 [5, 14]: > 10000 nM | AUC [6]: 0.894 | IC50 [6]: > 20 µM | AUC [7]: 0.796 | IC50 [7]: 6.5 µM | AUC [8]: 0.392 | IC50 [8]: 14.8 nM | AUC [9]: 0.982 | IC50 [9]: > 10 µM | AUC [10]: 0.943 | IC50 [10]: > 5 µM | AUC [11]: 0.977 | IC50 [11]: > 1020 nM | AUC [12]: 0.796 | IC50 [12]: 10.2 µM

EN (endometrium, adherent)
AUC [1]: 0.949 | IC50 [1]: > 10000 nM | AUC [2]: 0.947 | IC50 [2]: > 2000 nM | AUC [3]: 0.984 | IC50 [3]: > 20 µM | AUC [4]: 0.861 | IC50 [4]: > 5 µM | AUC [5, 13]: 0.976 | IC50 [5, 13]: > 2560 nM | AUC [5, 14]: 0.979 | IC50 [5, 14]: > 10000 nM | AUC [6]: 0.862 | IC50 [6]: > 20 µM | AUC [7]: 0.729 | IC50 [7]: 3.46 µM | AUC [8]: 0.585 | IC50 [8]: 58.1 nM | AUC [9]: 0.958 | IC50 [9]: > 10 µM | AUC [10]: 0.983 | IC50 [10]: > 5 µM | AUC [11]: 0.972 | IC50 [11]: > 1020 nM | AUC [12]: 0.839 | IC50 [12]: 15.4 µM

ESS-1 (endometrium, adherent)
AUC [1]: 0.317 | IC50 [1]: 205 nM | AUC [2]: 0.925 | IC50 [2]: > 2000 nM | AUC [3]: 0.988 | IC50 [3]: > 20 µM | AUC [4]: 0.939 | IC50 [4]: > 5 µM | AUC [5, 13]: 0.964 | IC50 [5, 13]: > 2560 nM | AUC [5, 14]: 0.936 | IC50 [5, 14]: > 10000 nM | AUC [6]: 0.99 | IC50 [6]: > 20 µM | AUC [7]: 0.825 | IC50 [7]: 5.34 µM | AUC [8]: 0.112 | IC50 [8]: 2.16 nM | AUC [9]: 0.964 | IC50 [9]: > 10 µM | AUC [10]: 0.99 | IC50 [10]: > 5 µM | AUC [11]: 0.987 | IC50 [11]: > 1020 nM | AUC [12]: 0.858 | IC50 [12]: 11 µM

EW-7 (Ewing sarcoma, semi-adherent)
AUC [1]: 0.799 | IC50 [1]: 4120 nM | AUC [2]: 0.706 | IC50 [2]: 436 nM | AUC [3]: 0.981 | IC50 [3]: > 20 µM | AUC [4]: 0.867 | IC50 [4]: 3.6 µM | AUC [5, 13]: 0.99 | IC50 [5, 13]: > 2560 nM | AUC [5, 14]: 0.972 | IC50 [5, 14]: > 10000 nM | AUC [6]: 0.669 | IC50 [6]: 3.45 µM | AUC [7]: 0.298 | IC50 [7]: 0.188 µM | AUC [8]: 0.236 | IC50 [8]: 6.24 nM | AUC [9]: 0.944 | IC50 [9]: > 10 µM | AUC [10]: 0.985 | IC50 [10]: > 5 µM | AUC [11]: 0.98 | IC50 [11]: > 1020 nM | AUC [12]: 0.586 | IC50 [12]: 1.67 µM

FTC-133 (thyroid, adherent)
AUC [1]: 0.746 | IC50 [1]: 3450 nM | AUC [2]: 0.81 | IC50 [2]: 1180 nM | AUC [3]: 0.986 | IC50 [3]: > 20 µM | AUC [4]: 0.782 | IC50 [4]: 2.31 µM | AUC [5, 13]: 0.977 | IC50 [5, 13]: > 2560 nM | AUC [5, 14]: 0.985 | IC50 [5, 14]: > 10000 nM | AUC [6]: 0.983 | IC50 [6]: > 20 µM | AUC [7]: 0.986 | IC50 [7]: > 10.2 µM | AUC [8]: 0.95 | IC50 [8]: > 512 nM | AUC [9]: 0.98 | IC50 [9]: > 10 µM | AUC [10]: 0.969 | IC50 [10]: > 5 µM | AUC [11]: 0.986 | IC50 [11]: > 1020 nM | AUC [12]: 0.986 | IC50 [12]: > 16 µM

FU97 (stomach, adherent)
AUC [1]: 0.648 | IC50 [1]: 1630 nM | AUC [2]: 0.941 | IC50 [2]: > 2000 nM | AUC [3]: 0.986 | IC50 [3]: > 20 µM | AUC [4]: 0.606 | IC50 [4]: 0.618 µM | AUC [5, 13]: 0.986 | IC50 [5, 13]: > 2560 nM | AUC [5, 14]: 0.966 | IC50 [5, 14]: > 10000 nM | AUC [6]: 0.941 | IC50 [6]: > 20 µM | AUC [7]: 0.873 | IC50 [7]: > 10.2 µM | AUC [8]: 0.175 | IC50 [8]: 3.2 nM | AUC [9]: 0.935 | IC50 [9]: > 10 µM | AUC [10]: 0.979 | IC50 [10]: > 5 µM | AUC [11]: 0.985 | IC50 [11]: > 1020 nM | AUC [12]: 0.887 | IC50 [12]: > 16 µM

FU-OV-1 (ovary, adherent)
AUC [1]: 0.717 | IC50 [1]: 3170 nM | AUC [2]: 0.894 | IC50 [2]: > 2000 nM | AUC [3]: 0.979 | IC50 [3]: > 20 µM | AUC [4]: 0.917 | IC50 [4]: > 5 µM | AUC [5, 13]: 0.969 | IC50 [5, 13]: > 2560 nM | AUC [5, 14]: 0.954 | IC50 [5, 14]: > 10000 nM | AUC [6]: 0.894 | IC50 [6]: > 20 µM | AUC [7]: 0.678 | IC50 [7]: 2.37 µM | AUC [8]: 0.576 | IC50 [8]: 55.2 nM | AUC [9]: 0.949 | IC50 [9]: > 10 µM | AUC [10]: 0.98 | IC50 [10]: > 5 µM | AUC [11]: 0.982 | IC50 [11]: > 1020 nM | AUC [12]: 0.823 | IC50 [12]: 13.6 µM

G-292 Clone A141B1 (osteosarcoma, adherent)
AUC [1]: 0.773 | IC50 [1]: 6590 nM | AUC [2]: 0.713 | IC50 [2]: 731 nM | AUC [3]: 0.973 | IC50 [3]: > 20 µM | AUC [4]: 0.725 | IC50 [4]: 2.04 µM | AUC [5, 13]: 0.696 | IC50 [5, 13]: 798 nM | AUC [5, 14]: 0.892 | IC50 [5, 14]: > 10000 nM | AUC [6]: 0.788 | IC50 [6]: 15.4 µM | AUC [7]: 0.749 | IC50 [7]: 5.28 µM | AUC [8]: 0.19 | IC50 [8]: 2.03 nM | AUC [9]: 0.932 | IC50 [9]: > 10 µM | AUC [10]: 0.961 | IC50 [10]: > 5 µM | AUC [11]: 0.961 | IC50 [11]: > 1020 nM | AUC [12]: 0.879 | IC50 [12]: > 16 µM

G-361 (melanoma, adherent)
AUC [1]: 0.348 | IC50 [1]: 242 nM | AUC [2]: 0.777 | IC50 [2]: 769 nM | AUC [3]: 0.988 | IC50 [3]: > 20 µM | AUC [4]: 0.87 | IC50 [4]: 4.35 µM | AUC [5, 13]: 0.93 | IC50 [5, 13]: > 2560 nM | AUC [5, 14]: 0.964 | IC50 [5, 14]: > 10000 nM | AUC [6]: 0.866 | IC50 [6]: 16.6 µM | AUC [7]: 0.988 | IC50 [7]: > 10.2 µM | AUC [8]: 0.231 | IC50 [8]: 5.52 nM | AUC [9]: 0.965 | IC50 [9]: > 10 µM | AUC [10]: 0.988 | IC50 [10]: > 5 µM | AUC [11]: 0.973 | IC50 [11]: > 1020 nM | AUC [12]: 0.986 | IC50 [12]: > 16 µM

G-401 (kidney, adherent)
AUC [1]: 0.342 | IC50 [1]: 216 nM | AUC [2]: 0.764 | IC50 [2]: 798 nM | AUC [3]: 0.984 | IC50 [3]: > 20 µM | AUC [4]: 0.881 | IC50 [4]: > 5 µM | AUC [5, 13]: 0.983 | IC50 [5, 13]: > 2560 nM | AUC [5, 14]: 0.982 | IC50 [5, 14]: > 10000 nM | AUC [6]: 0.768 | IC50 [6]: 8.2 µM | AUC [7]: 0.798 | IC50 [7]: 5.44 µM | AUC [8]: 0.178 | IC50 [8]: 3.03 nM | AUC [9]: 0.952 | IC50 [9]: > 10 µM | AUC [10]: 0.984 | IC50 [10]: > 5 µM | AUC [11]: 0.979 | IC50 [11]: > 1020 nM | AUC [12]: 0.83 | IC50 [12]: 11.4 µM
